Each structure is given as a SMILES string. In all, about 310,000 compounds went through this assay and about 2,200 (0.71%) showed an effect of 50% or more. Effects have a minus sign here. The list shows a part of the results.

Sequence of human ether-à-go-go-related gene (hERG) potassium channel (Q12809 whole entry, looked up): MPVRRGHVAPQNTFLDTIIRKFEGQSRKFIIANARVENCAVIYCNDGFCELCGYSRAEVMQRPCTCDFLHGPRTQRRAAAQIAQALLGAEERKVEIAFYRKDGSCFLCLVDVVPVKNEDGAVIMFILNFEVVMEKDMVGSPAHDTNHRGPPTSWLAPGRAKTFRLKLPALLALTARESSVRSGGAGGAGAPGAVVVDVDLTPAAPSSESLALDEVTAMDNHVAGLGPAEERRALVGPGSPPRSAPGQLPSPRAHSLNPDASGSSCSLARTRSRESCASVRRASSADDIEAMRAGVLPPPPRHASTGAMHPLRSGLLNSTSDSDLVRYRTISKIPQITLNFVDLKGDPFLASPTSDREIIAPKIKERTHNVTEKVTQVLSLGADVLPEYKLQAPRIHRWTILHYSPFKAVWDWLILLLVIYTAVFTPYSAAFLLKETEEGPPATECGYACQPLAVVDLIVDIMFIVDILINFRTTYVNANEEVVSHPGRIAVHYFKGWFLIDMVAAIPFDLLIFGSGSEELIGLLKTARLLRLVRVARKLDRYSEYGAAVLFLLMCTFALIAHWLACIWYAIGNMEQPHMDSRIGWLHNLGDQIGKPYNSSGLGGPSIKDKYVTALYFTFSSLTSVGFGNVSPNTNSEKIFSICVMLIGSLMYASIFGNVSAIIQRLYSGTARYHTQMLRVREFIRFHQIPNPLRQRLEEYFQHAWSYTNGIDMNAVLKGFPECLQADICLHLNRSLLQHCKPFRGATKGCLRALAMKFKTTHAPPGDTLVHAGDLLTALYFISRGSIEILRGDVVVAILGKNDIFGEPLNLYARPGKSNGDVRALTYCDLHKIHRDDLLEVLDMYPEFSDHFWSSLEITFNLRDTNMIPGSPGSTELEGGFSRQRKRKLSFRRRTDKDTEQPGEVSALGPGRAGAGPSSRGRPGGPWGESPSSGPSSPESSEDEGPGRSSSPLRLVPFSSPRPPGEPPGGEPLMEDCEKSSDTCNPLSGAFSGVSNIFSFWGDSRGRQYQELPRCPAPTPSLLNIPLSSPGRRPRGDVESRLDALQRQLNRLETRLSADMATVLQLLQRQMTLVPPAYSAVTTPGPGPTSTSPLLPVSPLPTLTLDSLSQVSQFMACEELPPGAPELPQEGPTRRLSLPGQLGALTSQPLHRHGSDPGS

This test concerns the target human ether-à-go-go-related gene (hERG) potassium channel (human, UniProt Q12809). In words: primary screen, population patch clamp on CHO cells stably expressing hERG.
`COC(=O)c1ccccc1NC(=O)Cn1cnc2cc(C)c(C)cc21`: the “hERG current change (%, negative = inhibition) at 1uM” value is on record as 2.29%. The same measure for `CCCCC(=O)Nc1ccccc1C(=O)N1CCOCC1`: 8.91%; for `CC(C)=C1C2CCC1C1C(=O)N(c3nccs3)C(=O)C21` (stereo not drawn): 17.3%; for `COc1cc(NC(=O)c2ccc3c(c2)OCO3)c2ncccc2c1`: 14.7%.

For the compound `Cc1ccc(C(=O)NNC(=O)c2cccc(S(=O)(=O)N3CCN(c4ccccc4)CC3)c2)cc1`, the “hERG current change (%, negative = inhibition) at 1uM” value is -0.28%. As for `CC(C)(O)/C=C1/Oc2ccccc2C1N1CCCCC1` (stereo not drawn), the figure is 2.26%; as for `COc1ccccc1CNC(=O)CSc1ccc(C(=O)Nc2ccccc2OC)cc1[N+](=O)[O-]`, 10.2%.

For the compound `CO/N=C\Cc1oc(=O)c(NC(=O)c2ccccc2)cc1C(=O)OC`, the “hERG current change (%, negative = inhibition) at 1uM” value stood at 3.64%. Turning to `Cc1ccc(N2CC(C(=O)Nc3nnc(SCc4ccccn4)s3)CC2=O)cc1` (stereo not drawn), the “hERG current change (%, negative = inhibition) at 1uM” value was determined as 2.44%. For `C=CCn1c(SCC(=O)N2CCCCCC2)nc2ccccc2c1=O`, the “hERG current change (%, negative = inhibition) at 1uM” value is listed as -17.5%.

As to `CCN(CC)S(=O)(=O)c1ccc(C(=O)NNC2=NS(=O)(=O)c3ccccc32)cc1`, the “hERG current change (%, negative = inhibition) at 1uM” value turned out to be 17.6%. Consider `CC1C2C(c3ccccc3)N(C)C(=O)N(C)C2N(C)C(=O)N1C` (stereo not drawn), for which the “hERG current change (%, negative = inhibition) at 1uM” value amounted to 4.46%. Turning to `Cc1ccc(Cn2cccc(NC(=O)CCC3CCCC3)c2=O)cc1`, the “hERG current change (%, negative = inhibition) at 1uM” value was 1.91%. In the case of `Cc1cc(C(=O)Nc2cccc(O)c2)c(C)o1`, the “hERG current change (%, negative = inhibition) at 1uM” value amounted to 9.98%. Turning to `COc1ccc(NC(=O)/C(C#N)=C\c2cc(C)n(-c3ccc4c(c3)OCO4)c2C)cc1`, the “hERG current change (%, negative = inhibition) at 1uM” value stood at 6.96%.

For `O=C(/C=C/c1ccco1)N(Cc1ccccc1)C1CCS(=O)(=O)C1` (stereo not drawn), the “hERG current change (%, negative = inhibition) at 1uM” value was 6.24%. The same measure for `CC[N+](CC)(CCO)CCCN1C(=O)C2CC=C(Cl)CC2C1=O.[Br-]` (stereo not drawn): 13.3%; for `O=C(CC(=O)NC1CCCCC1)N/N=C/c1cccc2ccccc12`: 11.5%. As for `c1ccc2c(c1)nc(N1CCOCC1)c1nnnn12`, the figure is 11.2%; as for `O=S(=O)(NCCc1ccccc1)c1cccs1`, 14.4%. As for `Cc1ccc(Nc2nc(CSc3nnc(-c4ccncc4)n3C)cs2)cc1`, the figure is -6.91%; as for `CC(C)(C)NC(=O)CSc1nnc(NC(=O)CCc2ccccc2)s1`, 12.2%; as for `Cc1ccc(C2=[N+]([O-])C(C)(C)CC2)cc1`, 14.4%. On to `CCC1CN(C)CCC1(OC(C)=O)c1ccccc1.Cl` (stereo not drawn), for which the “hERG current change (%, negative = inhibition) at 1uM” value is on record as 11.8%. As for `COC(=O)c1ccc(N)cc1O`, the figure is 16.6%; as for `O=C(COC(=O)c1ccc(S(=O)(=O)N2CCCC2)cc1)Nc1ccc(N2CCOCC2)cc1`, 16%.

In the case of `Cc1ccc(C(=O)N2c3ccccc3OCC2C)cc1` (stereo not drawn), the “hERG current change (%, negative = inhibition) at 1uM” value came to 10.8%. The same measure for `COc1ccc(OC)c(S(=O)(=O)N2CCC(C(=O)Nc3ccc(C)c(C)c3)CC2)c1`: 8.67%; for `CC1(C)CC(=O)c2c(noc2-c2ccccc2)C1`: 13.4%; for `Cc1cccc(C(=O)OCC(=O)NN2C(=O)NC3(CCC(C)CC3)C2=O)c1O` (stereo not drawn): 10.6%. The same measure for `COc1cccc(OC)c1C(=O)NC(C)C12CC3CC(CC(C3)C1)C2` (stereo not drawn): 11.6%. With `O=C1C(Cl)=C(NCCCN2CCOCC2)C(=O)N1CCc1ccccc1`, the “hERG current change (%, negative = inhibition) at 1uM” value is recorded as -8.18%. In the case of `CN1CCN(C(=O)c2ccccc2NC(=O)c2cccc(Cl)c2)CC1`, the “hERG current change (%, negative = inhibition) at 1uM” value was 1.38%. `CCN(CC)c1ccc(NC(=O)COC(=O)CCC(=O)c2cccs2)cc1`: the “hERG current change (%, negative = inhibition) at 1uM” value is on record as 6.19%. As for `CCc1ccc(OC)c(S(=O)(=O)NCc2cccs2)c1`, the figure is 7.29%; as for `Cc1ccc(NC(=O)C2(c3ccccc3)CCOCC2)cc1`, 11%; as for `Cc1nn(-c2cc(C)c3ccccc3n2)c2c1CCC2`, 9.38%. As for `Cc1cc(N2CCCC(C(=O)Nc3cccc(Cl)c3)C2)n2ncnc2n1` (stereo not drawn), the figure is -1.1%; as for `CCOC(=O)c1c(NC(=O)C2c3ccccc3Oc3ccccc32)sc(C(=O)N(CC)CC)c1C`, 11.7%. Regarding `CC1C(=O)NN=C1C(=O)N/N=C/c1cccs1` (stereo not drawn), the “hERG current change (%, negative = inhibition) at 1uM” value turned out to be 15.1%. As for `COC(=O)c1ccc(N/C=C/C(=O)c2ccccc2)cc1`, the figure is 16.9%; as for `COc1cc(Nc2ncnc(N)n2)cc(OC)c1`, 8.58%.

With `O=C(Nc1cc(Br)ccc1O)C1CC(c2c(F)cccc2Cl)=NO1` (stereo not drawn), the “hERG current change (%, negative = inhibition) at 1uM” value stood at 16%.

For `COC(=O)C1CCN(CC(=O)N(C)c2c(N)n(Cc3ccccc3)c(=O)[nH]c2=O)CC1`, the “hERG current change (%, negative = inhibition) at 1uM” value is recorded as -3.83%. As for `FC(F)(F)COc1cc(-c2nnc(SCc3ccccc3)n2Cc2ccco2)cc(OCC(F)(F)F)n1`, the figure is 7.9%.

Values taken from paper PMC4336329 (PLoS ONE, 2015).
